The full ranking holds about 33,000 sequences; the median of “E-score (-0.5 to 0.5)” is about -0.021, and the highest 2% start at about 0.32. The list shows a part of the results.
target: T1, Zap1 (UniProt P47043); assay: PBM E-score (8-mer binding enrichment) (E-score (-0.5 to 0.5)); higher = stronger / more preferred TF binding; most listed sequences are background and not binding sites; conditions: protein concentration: 200 nM; construct: GST-full length
T1 sequence: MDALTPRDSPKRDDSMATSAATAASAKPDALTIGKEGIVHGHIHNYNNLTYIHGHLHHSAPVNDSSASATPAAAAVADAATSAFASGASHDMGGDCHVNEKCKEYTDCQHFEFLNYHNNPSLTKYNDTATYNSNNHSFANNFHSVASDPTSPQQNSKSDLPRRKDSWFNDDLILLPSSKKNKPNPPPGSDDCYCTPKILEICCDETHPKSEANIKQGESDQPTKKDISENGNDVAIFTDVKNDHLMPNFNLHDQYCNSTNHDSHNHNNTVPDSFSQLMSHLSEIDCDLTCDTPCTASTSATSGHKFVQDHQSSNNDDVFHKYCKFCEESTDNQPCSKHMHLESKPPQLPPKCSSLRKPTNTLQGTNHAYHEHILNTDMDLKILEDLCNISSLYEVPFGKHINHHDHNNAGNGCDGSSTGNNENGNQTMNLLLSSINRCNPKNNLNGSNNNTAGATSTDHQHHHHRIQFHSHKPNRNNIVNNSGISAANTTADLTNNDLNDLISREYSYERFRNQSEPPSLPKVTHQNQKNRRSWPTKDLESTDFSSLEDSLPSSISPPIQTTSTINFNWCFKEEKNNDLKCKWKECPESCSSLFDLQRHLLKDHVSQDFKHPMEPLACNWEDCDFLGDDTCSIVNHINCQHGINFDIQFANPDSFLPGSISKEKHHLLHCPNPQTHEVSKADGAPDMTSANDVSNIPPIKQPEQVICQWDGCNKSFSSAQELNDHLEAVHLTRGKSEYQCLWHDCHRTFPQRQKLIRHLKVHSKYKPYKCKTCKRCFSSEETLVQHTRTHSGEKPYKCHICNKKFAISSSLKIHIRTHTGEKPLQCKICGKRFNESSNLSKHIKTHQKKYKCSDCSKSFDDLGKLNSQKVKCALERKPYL
Summary of the method: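 Bound GST-tagged yeast transcription factors, applied at about 100-200 nM to double-stranded universal all-10-mer Agilent arrays, were detected with fluorescent anti-GST. Scans were normalised with masliner. A modified Wilcoxon-Mann-Whitney statistic, the E-score, was assigned to each ungapped eight-base word pooled with its reverse complement by the Universal PBM Analysis Suite.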

Sequence | PBM E-score
ATTGTATC | -0.147
CCCCAGGC | -0.275
ATCAACCG | 0.0133
CTCACGGA | -0.112
ATTGGGAC | 0.214
ACACTGCC | 0.0346
ACGCGAGT | 0.151
GGTCGACA | 0.0391
CATAGCAG | -0.29
AGGTCTAG | -0.0206
AGATATAG | 0.14
GATACCAC | 0.183
ACGAGCTC | -0.157
TGTCTGAA | -0.0114
ATAGTGTA | -0.0725
GGGATACC | 0.203
CACAAGAA | 0.23
AAGCAAAC | -0.0029
AGGATGGG | -0.247
AGTTTTCA | 0.015
AAGCTTCT | -0.247
CGTTGGAA | -0.0543

Sequence | PBM E-score
AGTAACCG | 0.355
CCTCCCCA | 0.0296
AACATTGC | -0.0846
CGTAGGGA | -0.191
AACTCAGC | -0.115
CAATGAAA | -0.0117
ACCATTCC | 0.00682
ACGGACAG | -0.202
AGCAAGGG | 0.191
GAGCCGGA | -0.248
CTTTGTAA | 0.232
AAAGAACG | 0.0984
AACGTACC | -0.034
ATACAATA | 0.125
ACCCTCGC | 0.267
CATGAGAG | 0.0645
AGGCGTTG | -0.104
ACACCTCC | -0.272
GTGGATCA | -0.124
ACCAATCT | 0.0905
CTGATGAC | 0.00349
GCGGATGA | -0.0325

Sequence | PBM E-score
GGAATTTA | 0.0666
AACCTCCC | 0.155
CGGTGATA | 0.014
CTATCGCC | -0.222
AAGCAACT | -0.00952
CCGTTAGC | -0.12
CGCTAATC | -0.0409
CAGATTCC | -0.00551
AAAAAACG | 0.218
AAATCGTG | 0.14
TACCGCGA | 0.328
GTGAAAGA | 0.0877
AGTAGTTG | 0.112
CTGACCTC | 0.194
AGGCAGCG | -0.291
ATCAGAAG | -0.0955
CACCTCAC | 0.155
CTTGTATC | 0.00927
GCCGGACC | -0.173
GATGTCCA | 0.00103
TGAGTGAA | -0.0791
GTAGGGCA | -0.143

Sequence | PBM E-score
ATCCCTTG | -0.0496
GAGATACC | 0.141
CAAGGAAG | -0.0885
ATCCCACA | -0.135
ACGGGGTC | 0.218
ATTCAGCC | -0.152
CGAAAGAC | -0.221
GGTGTAAC | 0.262
ACGGCGCA | -0.0664
ACCGTTGG | 0.159
CATTAGTC | -0.104
ACATGAGG | 0.00666
CTTTTACA | 0.101
GCAGGCCA | -0.0943
GAATATGA | 0.0388
AGGGTCTA | 0.145
CCCAAACG | 0.053
GAAAGAGC | -0.158
ATGCACGG | -0.128
CCCACGGC | -0.0955
CGCTTCAG | -0.0307
CATCTTAA | -0.0359

Sequence | PBM E-score
GCACCTCA | 0.152
AACCTGAG | 0.181
CTCAACGC | -0.162
CGAGGTAG | 0.0649
AAATGACG | 0.111
ACAACCCA | 0.286
AGTGCATC | -0.265
AAGGGAGG | -0.187
CGTCGACG | -0.165
GTAGTTGA | 0.2
AAGGCGGA | -0.0506
ACACACAG | 0.122
AGTGCACC | -0.136
CATGCGGA | -0.0937
CCAGGATA | 0.164
ACGTTATA | 0.137
CGCACCCA | -0.0129
CAGCACGC | -0.229
ATGATGAG | -0.0756
ACAACGGC | 0.0141
GTCTACTA | 0.178
CAAAATAG | -0.196

Source: the supplement of paper PMC3334620
